Assay results as given in article PMC4336329 (PLoS ONE, 2015).
In all, about 310,000 compounds went through this assay and about 14,000 (4.5%) showed an effect of 50% or more. Effects have a minus sign here. The list shows a part of the results.
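Also: peak tail current of the secondary pulse compared with the same well before compound.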

What follows are compounds tested against human ether-à-go-go-related gene (hERG) potassium channel (human, UniProt Q12809) (assay: primary screen, population patch clamp on CHO cells stably expressing hERG).
Sequence of human ether-à-go-go-related gene (hERG) potassium channel (Q12809 whole entry, looked up): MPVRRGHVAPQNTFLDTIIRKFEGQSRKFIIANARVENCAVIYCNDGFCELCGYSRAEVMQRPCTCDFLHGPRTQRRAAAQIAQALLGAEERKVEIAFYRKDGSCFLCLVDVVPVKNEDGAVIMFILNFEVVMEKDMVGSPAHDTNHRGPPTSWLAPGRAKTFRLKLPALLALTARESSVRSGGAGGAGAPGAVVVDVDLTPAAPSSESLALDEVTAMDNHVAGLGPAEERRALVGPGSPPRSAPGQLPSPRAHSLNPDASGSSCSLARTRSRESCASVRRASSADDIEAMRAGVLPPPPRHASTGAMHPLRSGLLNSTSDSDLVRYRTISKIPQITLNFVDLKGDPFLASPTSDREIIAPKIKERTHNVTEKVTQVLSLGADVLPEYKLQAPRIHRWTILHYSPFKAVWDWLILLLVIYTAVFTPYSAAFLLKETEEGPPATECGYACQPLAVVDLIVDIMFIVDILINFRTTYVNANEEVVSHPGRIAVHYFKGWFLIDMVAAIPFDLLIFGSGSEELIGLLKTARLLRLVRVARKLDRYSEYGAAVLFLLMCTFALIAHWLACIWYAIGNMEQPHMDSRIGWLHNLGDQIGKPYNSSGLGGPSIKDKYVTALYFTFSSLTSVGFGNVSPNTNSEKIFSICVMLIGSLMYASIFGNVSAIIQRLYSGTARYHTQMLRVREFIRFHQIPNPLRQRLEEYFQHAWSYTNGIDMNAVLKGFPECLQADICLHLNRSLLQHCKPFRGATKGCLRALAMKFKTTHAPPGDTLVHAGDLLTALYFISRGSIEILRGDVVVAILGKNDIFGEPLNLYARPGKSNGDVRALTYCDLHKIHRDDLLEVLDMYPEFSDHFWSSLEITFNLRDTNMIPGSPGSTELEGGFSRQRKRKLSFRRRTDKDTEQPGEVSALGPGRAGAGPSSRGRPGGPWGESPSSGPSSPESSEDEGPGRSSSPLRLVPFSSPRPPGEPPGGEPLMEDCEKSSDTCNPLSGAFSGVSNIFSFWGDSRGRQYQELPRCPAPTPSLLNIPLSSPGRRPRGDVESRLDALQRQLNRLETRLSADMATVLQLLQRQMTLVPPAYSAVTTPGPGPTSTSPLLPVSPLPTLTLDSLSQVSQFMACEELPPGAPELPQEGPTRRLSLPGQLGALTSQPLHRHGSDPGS
O=C(CN1CCN(c2ncc(C(F)(F)F)cc2Cl)CC1)NCCNc1ncc(C(F)(F)F)cc1Cl was tested, and the “hERG current change (%, negative = inhibition) at 10uM” value was 14.3%. In the case of CCCN(CC1CC1)S(=O)(=O)c1ccc(S(N)(=O)=O)cc1, the “hERG current change (%, negative = inhibition) at 10uM” value is reported as -17.1%. For CN(C(=O)c1ccccc1Cl)c1ccccc1C(=O)NCc1ccccc1, the “hERG current change (%, negative = inhibition) at 10uM” value was 4.28%. With O=C(Nc1ccc(C(F)(F)F)cc1)c1csc(-c2ccncc2)n1 the “hERG current change (%, negative = inhibition) at 10uM” value was -25.4%. CC(Nc1ccc(F)cc1)=[N+](C)CCNS(=O)(=O)c1ccc(Cl)cc1.[I-] was tested, and the “hERG current change (%, negative = inhibition) at 10uM” value was -68.4%. For CC1(C#CC[N+]2(C)CCCCC2)CCC2C(O1)c1ccccc1OC2(C)C.[I-] (stereo not drawn), the “hERG current change (%, negative = inhibition) at 10uM” value was 22.4%. With O=C(CN1C(=O)COc2ccc(Cl)cc21)NC1CC1 the “hERG current change (%, negative = inhibition) at 10uM” value was -11.1%. With COc1ccc2c(C)cc(SCC(=O)Nc3nsc(-c4ccc(C)cc4)n3)nc2c1 the “hERG current change (%, negative = inhibition) at 10uM” value was -2.54%. For CC(=O)Nc1nc(C)cs1, the “hERG current change (%, negative = inhibition) at 10uM” value was 18.6%. S=c1[nH]nc(COc2ccccc2)n1/N=C/c1ccccc1Br was tested, and the “hERG current change (%, negative = inhibition) at 10uM” value was 14.7%. COc1ccc(NC(=O)C2C(c3ccccc3)C2(Cl)Cl)cc1 (stereo not drawn) was tested, and the “hERG current change (%, negative = inhibition) at 10uM” value was 4.69%. With Cc1cccc(C(=O)NCc2nnc3c4ccccc4c(-c4ccccc4)nn23)c1 the “hERG current change (%, negative = inhibition) at 10uM” value was -4.14%. CCCN1CCN(C(=O)Cn2cnc3sc(C)c(S(=O)(=O)N4CCC(C)CC4)c3c2=O)CC1 was tested, and the “hERG current change (%, negative = inhibition) at 10uM” value was -23.1%. In the case of Cc1ccc(S(=O)(=O)NN/C(=N/S(=O)(=O)c2ccccc2)c2ccccc2)cc1, the “hERG current change (%, negative = inhibition) at 10uM” value is reported as 21.1%. In the case of O=C1Nc2ccccc2C1(O)c1ccccc1O (stereo not drawn), the “hERG current change (%, negative = inhibition) at 10uM” value is reported as 34.6%. CC(NC(=O)COC(=O)c1cc(NS(=O)(=O)c2ccc(Cl)c([N+](=O)[O-])c2)ccc1O)C1CC2CCC1C2 (stereo not drawn) was tested, and the “hERG current change (%, negative = inhibition) at 10uM” value was -2.01%. For COc1ccc(C2/C(=C(/O)c3ccc4c(c3)CC(C)O4)C(=O)C(=O)N2Cc2cccnc2)cc1 (stereo not drawn), the “hERG current change (%, negative = inhibition) at 10uM” value was 12.9%. With O=C(NCc1cccs1)c1ccc(S(=O)(=O)N2CCOCC2)cc1 the “hERG current change (%, negative = inhibition) at 10uM” value was -9.72%. For COc1cccc(C2CC(=O)NC(SC)=C2C#N)c1 (stereo not drawn), the “hERG current change (%, negative = inhibition) at 10uM” value was 0.0274%. With Cc1ccc(NCC(=O)Nc2cccc(F)c2)cc1S(=O)(=O)N1CCCCCC1 the “hERG current change (%, negative = inhibition) at 10uM” value was -22.6%. In the case of CN1CCN(CC(=O)Nc2ccc([N+](=O)[O-])cc2C(=O)c2ccccc2)CC1, the “hERG current change (%, negative = inhibition) at 10uM” value is reported as -84.6%. For CCc1ccccc1NC(=O)NC1CC2CCC(C1)N2Cc1cccs1 (stereo not drawn), the “hERG current change (%, negative = inhibition) at 10uM” value was -22.4%. In the case of CC(C)C[C@H](NC(=O)Nc1cccc(Cl)c1)C(=O)O, the “hERG current change (%, negative = inhibition) at 10uM” value is reported as -0.951%. With O=C1CCNCCN1[C@H](CO)c1ccccc1 the “hERG current change (%, negative = inhibition) at 10uM” value was 16.3%. With CC(C)(O[C@@H]1O[C@H](CO)[C@@H](O)[C@H](O)[C@H]1O)[C@@H]1CC=C(C(=O)O)CC1 the “hERG current change (%, negative = inhibition) at 10uM” value was 15.5%. In the case of Cc1cc(NC(=O)c2ccc(Br)o2)ccc1NC(=O)c1ccco1, the “hERG current change (%, negative = inhibition) at 10uM” value is reported as -58.2%. In the case of COc1ccc(CCNC(=O)C2CCN(C(=O)c3ccc(F)cc3)CC2)cc1, the “hERG current change (%, negative = inhibition) at 10uM” value is reported as 10.2%. With COc1ccc(N(Cc2cc3cccc(C)c3[nH]c2=O)C(=O)C2CCCO2)cc1 (stereo not drawn) the “hERG current change (%, negative = inhibition) at 10uM” value was -10.3%. O=C(CN1C(=O)NC2(CCc3ccccc32)C1=O)NCC(=O)Nc1ccc(F)cc1 (stereo not drawn) was tested, and the “hERG current change (%, negative = inhibition) at 10uM” value was 1.09%. With Cc1cc2n(n1)C(c1cn(-c3ccccc3)nc1C)Nc1ccccc1-2 (stereo not drawn) the “hERG current change (%, negative = inhibition) at 10uM” value was 2.74%. C=CCNC(=O)COC(=O)c1ccc(C)c(NC(=O)c2ccco2)c1 was tested, and the “hERG current change (%, negative = inhibition) at 10uM” value was -5.01%. With Cc1nc(=S)c2c([nH]1)-c1ccccc1CC21CCCCC1 the “hERG current change (%, negative = inhibition) at 10uM” value was 10.8%. With COC1=C/C(=C/c2c(N)n3nc(CC(=O)N4CCCC4)sc3nc2=O)C=CC1=O the “hERG current change (%, negative = inhibition) at 10uM” value was 17.2%. COc1ccccc1-n1cnnc1SCC(=O)N1CCN(S(=O)(=O)c2ccccc2)CC1 was tested, and the “hERG current change (%, negative = inhibition) at 10uM” value was 4.83%. With COc1ccc(C)cc1NC(=O)c1c([N+](=O)[O-])cnn1C the “hERG current change (%, negative = inhibition) at 10uM” value was 12.9%. With Cc1cc(C(=O)NC2CCCc3c2cnn3-c2cccc(C)c2C)no1 (stereo not drawn) the “hERG current change (%, negative = inhibition) at 10uM” value was -11.8%. In the case of CCCn1nc(C(=O)N2CCc3ccccc32)c2ccccc2c1=O, the “hERG current change (%, negative = inhibition) at 10uM” value is reported as -11.1%. For COc1cccc(C2C(C(=O)c3ccc(C)o3)=C(O)C(=O)N2c2cc(C)on2)c1 (stereo not drawn), the “hERG current change (%, negative = inhibition) at 10uM” value was -1.29%. With CN=C(c1ccc(C)cc1)n1c(=S)nc(-c2ccc(C)cc2)n(C)c1=S the “hERG current change (%, negative = inhibition) at 10uM” value was 26%. In the case of O=C(CCN1C(=O)C2(OCCO2)c2ccccc21)c1ccccc1, the “hERG current change (%, negative = inhibition) at 10uM” value is reported as 4.71%. For O=C(c1cc(-c2ccc(F)cc2)on1)N1CCCc2ccccc21, the “hERG current change (%, negative = inhibition) at 10uM” value was 7.4%. In the case of COc1ccc(-c2noc(COC(=O)c3ccco3)n2)cc1OC, the “hERG current change (%, negative = inhibition) at 10uM” value is reported as 8.52%. COc1ccccc1N1CCN(C(=O)CCC(=O)N2CCN(c3ccc(F)cc3)CC2)CC1 was tested, and the “hERG current change (%, negative = inhibition) at 10uM” value was -17%. For Fc1ccccc1Cc1noc(CN2CCN(Cc3ccc4c(c3)OCO4)CC2)n1, the “hERG current change (%, negative = inhibition) at 10uM” value was -25.9%. In the case of Cc1[nH]n(-c2ccc(Cl)cc2)c(=O)c1/C=N/n1c(C)nc2ccccc2c1=O, the “hERG current change (%, negative = inhibition) at 10uM” value is reported as -1.03%. CC(C)(C)c1ccc(C(=O)Nc2ccc(C(=O)NCc3cccnc3)cc2)cc1 was tested, and the “hERG current change (%, negative = inhibition) at 10uM” value was -20.6%. In the case of CCC(C)C(NC(=O)c1ccc(Cl)cc1)C(=O)Nc1cccnc1 (stereo not drawn), the “hERG current change (%, negative = inhibition) at 10uM” value is reported as -23.9%. In the case of O=C(Nc1ccccc1C(=O)NCCc1ccc(O)cc1)c1ccco1, the “hERG current change (%, negative = inhibition) at 10uM” value is reported as 5.37%. For CCOC(=O)c1cnn(-c2ccccc2)c1NC(=O)CN1CCOCC1, the “hERG current change (%, negative = inhibition) at 10uM” value was 16.1%. For C=CCC(C#Cc1ccccc1)[N+](C)(C)CC=C.[Br-] (stereo not drawn), the “hERG current change (%, negative = inhibition) at 10uM” value was 10.1%. CC(=O)Nc1ccc(NC(=O)C(C)n2nc([N+](=O)[O-])c(Br)c2C)cc1 (stereo not drawn) was tested, and the “hERG current change (%, negative = inhibition) at 10uM” value was 8.38%. For Cc1cc(S(=O)(=O)N2CCCC2)c(C)s1, the “hERG current change (%, negative = inhibition) at 10uM” value was -6.72%. In the case of Cc1ccc(CNC(=O)CSc2nc3[nH]ncc3c(=O)[nH]2)cc1, the “hERG current change (%, negative = inhibition) at 10uM” value is reported as 4.89%. With COc1ccc(CCN2CC(C(=O)Nc3ccc4c(c3)OCO4)CC2=O)cc1OC (stereo not drawn) the “hERG current change (%, negative = inhibition) at 10uM” value was 18%.
